The values below come from the BET-seq Pho4 binding data (Le et al. 2018).

This is one part of the list. The energies were worked out here from pooled read counts, against the library average; single values are noisy.

For the experiment, the target named is T1, Pho4 (S. cerevisiae) (UniProt P07270).
T1 sequence: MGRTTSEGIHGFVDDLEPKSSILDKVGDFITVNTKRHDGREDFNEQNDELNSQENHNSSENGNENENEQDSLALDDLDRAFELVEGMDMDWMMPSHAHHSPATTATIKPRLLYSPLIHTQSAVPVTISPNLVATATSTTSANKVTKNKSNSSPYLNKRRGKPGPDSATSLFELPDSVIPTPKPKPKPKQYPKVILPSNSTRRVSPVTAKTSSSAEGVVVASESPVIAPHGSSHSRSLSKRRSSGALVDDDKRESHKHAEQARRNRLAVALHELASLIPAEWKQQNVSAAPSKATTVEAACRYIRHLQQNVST
The experiment can be described thus: relative binding free energy (BET-seq); higher = weaker binding. The following applies: reference: library average.
For TGGACCACGTGGATGT, the “relative binding free energy” value worked out at 0.01 kcal/mol.
The result for AGGTACACGTGTGATA reads 0.14 kcal/mol; that for ATAATCACGTGGGTTG, -0.04 kcal/mol; that for TTGTTCACGTGCTCAA, 0.39 kcal/mol.
Take AGACGCACGTGTGGTT: the “relative binding free energy” value was -0.05 kcal/mol.
Consider CGGGTCACGTGGGACG, for which the “relative binding free energy” value came to 0.05 kcal/mol.
For the sequence TTTGTCACGTGAAACT, the “relative binding free energy” value amounted to 0.33 kcal/mol.
Take TACAACACGTGTGGGT: the “relative binding free energy” value came out at 0.08 kcal/mol.
For the sequence TTGGTCACGTGAAAGC, the “relative binding free energy” value stood at 0.26 kcal/mol.
GTTAACACGTGTTATT: the “relative binding free energy” value stood at 0.1 kcal/mol.
For TGGAACACGTGTAGTT, the “relative binding free energy” value was found to be 0.08 kcal/mol.
For the sequence CTGGGCACGTGCCTGG, the “relative binding free energy” value is -0.16 kcal/mol.
With GGTTGCACGTGCTGCG, the “relative binding free energy” value is -0.1 kcal/mol.
The result for GGTAGCACGTGCGTAA reads 0 kcal/mol; that for AGGGCCACGTGTAGAG, -0.03 kcal/mol.
The result for GCTGGCACGTGATGGG reads -0.04 kcal/mol; that for CTGTACACGTGGTGTA, -0.1 kcal/mol; that for AGCTTCACGTGTGTAA, 0.32 kcal/mol.
The result for GTCGGCACGTGTCGGT reads 0.02 kcal/mol; that for GCCGGCACGTGGGGAT, -0.2 kcal/mol; that for TGATGCACGTGAAGAG, 0.16 kcal/mol.
As for GGAGGCACGTGCCGTG, the “relative binding free energy” value is -0.2 kcal/mol.
Regarding TTGAACACGTGATATT, the “relative binding free energy” value came out at 0.14 kcal/mol.
TTGATCACGTGTCGAG: the “relative binding free energy” value stood at 0.15 kcal/mol.
The result for TGATACACGTGTAGAT reads 0.18 kcal/mol.
The result for AAAACCACGTGTGGGG reads 0 kcal/mol; that for AGATTCACGTGGCTTA, 0.22 kcal/mol.
As for GGGGACACGTGTGAGG, the “relative binding free energy” value stood at 0.18 kcal/mol.
With CGTAGCACGTGTGTTT, the “relative binding free energy” value was 0.02 kcal/mol.
For the sequence TGTGTCACGTGGTTAT, the “relative binding free energy” value worked out at 0.05 kcal/mol.
Turning to GTTTGCACGTGGTAGA, the “relative binding free energy” value is -0.11 kcal/mol.
The figure for TGACGCACGTGGGATG is -0.19 kcal/mol; for TCTGTCACGTGTTATA it is 0.07 kcal/mol; for CTGTGCACGTGGTTCG it is -0.23 kcal/mol.
As for TGGCACACGTGGTGGC, the “relative binding free energy” value came out at 0.09 kcal/mol.
The figure for ATGGGCACGTGGGAAC is -0.16 kcal/mol.
Take AAATTCACGTGTTTCT: the “relative binding free energy” value turned out to be 0.11 kcal/mol.
Turning to GGTTGCACGTGTCAGG, the “relative binding free energy” value stood at 0.19 kcal/mol.
The figure for AATGGCACGTGTAGTA is -0.09 kcal/mol.
As for GGATTCACGTGTGCTA, the “relative binding free energy” value was 0.29 kcal/mol.
With TAGGTCACGTGGCGCG, the “relative binding free energy” value stood at 0.19 kcal/mol.
As for TAATGCACGTGGCTGG, the “relative binding free energy” value was -0.19 kcal/mol.
GGTTCCACGTGTGAAG: the “relative binding free energy” value was 0.27 kcal/mol.
The figure for ATAGGCACGTGAGAGT is 0.1 kcal/mol; for TTGTTCACGTGGCACG it is 0.22 kcal/mol.
Turning to CATGGCACGTGATTTT, the “relative binding free energy” value worked out at 0.05 kcal/mol.
The figure for CGTGCCACGTGGGGTG is -0.25 kcal/mol; for ATTGCCACGTGTTTAG it is 0 kcal/mol.
GGGCGCACGTGTACGG: the “relative binding free energy” value is -0.06 kcal/mol.
The figure for GCGAACACGTGGGTGT is -0.14 kcal/mol.
With GGGTGCACGTGTGATT, the “relative binding free energy” value stood at 0.12 kcal/mol.
Take ACATGCACGTGTAGGT: the “relative binding free energy” value is -0.06 kcal/mol.
For GGGGTCACGTGGGATG, the “relative binding free energy” value stood at 0.02 kcal/mol.
In the case of TGTTACACGTGTTTAC, the “relative binding free energy” value worked out at 0.13 kcal/mol.
The figure for CATGTCACGTGTAGGG is -0.08 kcal/mol; for TCGTGCACGTGGGAGT it is -0.15 kcal/mol.
AGGTGCACGTGTGCCG: the “relative binding free energy” value was determined as 0 kcal/mol.
As to TATGACACGTGTTTGC, the “relative binding free energy” value is 0.02 kcal/mol.
Turning to TGAGGCACGTGGGCTT, the “relative binding free energy” value is -0.25 kcal/mol.
For the sequence GTAGTCACGTGGGCGG, the “relative binding free energy” value amounted to 0.03 kcal/mol.
As to TTACGCACGTGTTTAG, the “relative binding free energy” value was -0.2 kcal/mol.
For TTGCACACGTGAATGT, the “relative binding free energy” value was 0.38 kcal/mol.
The result for TGTTGCACGTGCTCTG reads -0.18 kcal/mol.
